According to article PMC4336329 (PLoS ONE, 2015):
The whole screen tested about 310,000 compounds, of which about 14,000 (4.5%) showed an effect of 50% or more. Effects have a minus sign here. The list shows a part of the results.

The compounds below were run against human ether-à-go-go-related gene (hERG) potassium channel (human, UniProt Q12809) (assay: primary screen, population patch clamp on CHO cells stably expressing hERG).
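Further: peak tail current of the secondary pulse compared with the same well before compound.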

Chain of human ether-à-go-go-related gene (hERG) potassium channel (Q12809 whole entry, looked up): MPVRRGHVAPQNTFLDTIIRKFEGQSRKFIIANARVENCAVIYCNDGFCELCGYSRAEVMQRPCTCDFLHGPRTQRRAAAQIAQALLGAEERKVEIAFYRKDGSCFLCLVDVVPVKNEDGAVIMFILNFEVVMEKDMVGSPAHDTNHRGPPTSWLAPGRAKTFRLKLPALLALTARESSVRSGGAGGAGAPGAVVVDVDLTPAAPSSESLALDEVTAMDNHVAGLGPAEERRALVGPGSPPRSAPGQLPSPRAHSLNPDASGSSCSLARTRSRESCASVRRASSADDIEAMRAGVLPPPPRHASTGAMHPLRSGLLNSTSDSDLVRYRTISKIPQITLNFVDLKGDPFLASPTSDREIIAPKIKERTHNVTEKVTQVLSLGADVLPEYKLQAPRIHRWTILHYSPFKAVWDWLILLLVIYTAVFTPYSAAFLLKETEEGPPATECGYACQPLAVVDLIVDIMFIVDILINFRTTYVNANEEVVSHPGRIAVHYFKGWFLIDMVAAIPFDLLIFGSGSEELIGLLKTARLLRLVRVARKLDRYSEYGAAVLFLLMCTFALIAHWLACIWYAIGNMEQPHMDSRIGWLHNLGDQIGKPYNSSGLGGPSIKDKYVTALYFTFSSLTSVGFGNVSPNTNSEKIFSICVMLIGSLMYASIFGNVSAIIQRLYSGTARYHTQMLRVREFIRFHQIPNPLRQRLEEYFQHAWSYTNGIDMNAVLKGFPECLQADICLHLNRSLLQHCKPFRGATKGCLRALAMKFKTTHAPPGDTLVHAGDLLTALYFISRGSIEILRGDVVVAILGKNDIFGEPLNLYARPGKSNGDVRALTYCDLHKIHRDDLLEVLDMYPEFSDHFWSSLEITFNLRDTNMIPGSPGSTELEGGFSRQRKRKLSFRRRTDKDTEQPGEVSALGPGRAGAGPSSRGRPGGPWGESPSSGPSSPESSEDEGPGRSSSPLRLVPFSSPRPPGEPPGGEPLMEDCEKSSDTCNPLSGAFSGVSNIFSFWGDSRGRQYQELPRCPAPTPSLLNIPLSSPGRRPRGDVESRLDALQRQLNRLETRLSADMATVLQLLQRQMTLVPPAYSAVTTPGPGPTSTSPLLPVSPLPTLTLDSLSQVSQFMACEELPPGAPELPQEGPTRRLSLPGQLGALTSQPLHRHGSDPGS

SMILES	hERG current change (%, negative = inhibition) at 10uM
c1coc(-c2nnc(-c3cccs3)o2)c1	13.6%
O=C(OCn1nnc2ccccc2c1=O)c1cccs1	-8.86%
Cc1ccc(C)c(N2CCN(C(=O)Cn3c(=O)[nH]c4ccsc4c3=O)CC2)c1	-4.12%
COc1ccc(C(=O)N=S2CCN(C(=O)c3ccc(Cl)cc3)CC2)cc1	-29%
CC(C)(C)c1ccc(OCC(=O)NNC(=S)NC(=O)c2ccccc2[N+](=O)[O-])c(Br)c1	23.1%
Cc1ccc(-n2c(=O)cc(N3CC(C)OC(C)C3)[nH]c2=O)cc1 (stereo not shown)	0.907%
Cc1ccc(NC(=O)CNC(=O)Cc2cccc3ccccc23)c(O)c1	22.8%
Cc1nn(-c2ccccc2)c2c1C(c1ccc(F)cc1)C(C#N)=C(N)O2 (stereo not shown)	8.18%
COc1cc(C2CC(=O)C3=C(C2)Nc2ncnn2C3c2cccs2)cc(OC)c1OC (stereo not shown)	1.83%
Cc1ccc(NC(=O)c2cccc(S(=O)(=O)N3CCCC3)c2)nc1	-7.18%
O=C(Nc1sc2c(c1C(=O)O)CCCCC2)c1ccccc1F	26.5%
COc1cc(OC)c(NC(=S)NCc2ccc(F)cc2)cc1Cl	-0.244%
COc1ccccc1NC(=O)c1ccc(N)cc1	5.63%
CC1CN(C(=O)c2cccc(COc3ccccc3Cl)c2)CC(C)O1 (stereo not shown)	-49.3%
COc1ccc(C)cc1NC(=O)c1ccc(NS(=O)(=O)c2c(C)noc2C)cc1	3.13%
Cc1ccc(-c2nc(-c3cccnc3)sc2CC(=O)Nc2ccc3nc(C)sc3c2)cc1	1.56%
O=C(Nc1ccc(C(F)(F)F)cc1)C1CCCCN1S(=O)(=O)c1ccccc1 (stereo not shown)	-23.3%
CCn1cc(/C=C/C(=O)Nc2ccn(Cc3c(F)c(F)cc(F)c3F)n2)cn1	-14.9%
CC1(C)OC(=O)C=C[C@]2(C)[C@H]3CC[C@@]4(C)[C@H](c5ccoc5)OC(=O)[C@H]5O[C@]54[C@]3(C)C(=O)C[C@@H]12	-10.3%
CN(C)c1ccc(N/C=C/C(=O)c2ccco2)cc1	4.67%
CC1CCCCN1S(=O)(=O)c1ccc(N(C(=O)c2cnccn2)C(C(=O)NC2CCCCC2)c2cccs2)cc1 (stereo not shown)	-26.3%
Cc1nc(N2CCC(C(N)=O)CC2)c2nnn(Cc3ccccc3)c2n1	16.3%

SMILES	hERG current change (%, negative = inhibition) at 10uM
COc1ccc(/C=C(/CC(=O)NCc2ccc(Cl)cc2)c2nc3ccccc3s2)cc1	9.4%
CC1(C(=O)O)CCC(C(N)=O)C1(C)C (stereo not shown)	1.19%
COc1ccc(CNC(=O)C(OC(C)=O)c2ccccn2)cc1 (stereo not shown)	6.09%
COc1ccccc1-n1cnc2cc(C(=O)NCC3CCCO3)ccc21 (stereo not shown)	-13.7%
O=C(CCCSc1nc2ccccc2[nH]1)NCc1ccccc1Cl	-19.3%
S=c1[nH]nc(COc2ccc(Cl)cc2)n1-c1ccccc1	15.5%
CC1CCCC(C)N1CCCNC(=O)CCn1c(=O)c2cccn2c2cccnc21 (stereo not shown)	16.7%
CN1CCN(c2ccc(NC(=O)c3ccc(Oc4ccccc4)cc3)cc2)CC1	11.1%
CCC(CC)C(=O)NCCCCc1ccccc1	1.79%
CCOC(=O)c1ccc(NC(=S)N2CCN(Cc3ccccc3)CC2)cc1	3.95%
CC(=O)CSc1nc(N)c(C#N)c(-c2cccs2)c1C#N	13.1%
CN(C)CCNC(=O)C(=O)C1C(=O)Nc2ccccc21 (stereo not shown)	8.38%
CCO.Cc1cc(C)n(CCc2nc(-c3ccc(-c4ccccc4)cc3)cs2)n1	10.1%
O=C(c1nn2c(C(F)(F)F)cc(-c3cccs3)nc2c1Br)N1CCCc2ccccc21	14.3%
CCCOc1ccc(-c2c(=O)n(O)c3ccccc3[n+]2[O-])cc1	18.3%
CCN1C(=O)N[C@@H](c2ccccc2)[C@H](C(C)=O)[C@H]1C	12.9%
CC(C)N(Cc1cnn(C)c1)C(=O)C1CCC(=O)N(CCc2cccc(F)c2)C1 (stereo not shown)	2.63%
COc1ccc(C(=O)CSc2nnc(NC(=O)C3CC(=O)N(c4ccccc4C)C3)s2)cc1 (stereo not shown)	9.04%
COc1ccc(-c2c(NC(=O)c3ccco3)oc3ccccc3c2=O)cc1	15.2%
CN(C)CCn1nnc2c(=O)oc3ccccc3c21.Cl	-8.48%
CCc1c(C(C)S(=O)(=O)c2ccc(C)cc2)[nH]c(=O)n1-c1ccc(C)cc1 (stereo not shown)	13.5%
O=C1c2ccccc2C(=O)N1CN(C(=O)COc1ccc(Cl)cc1Cl)c1cccc(F)c1	1.4%

SMILES	hERG current change (%, negative = inhibition) at 10uM
COc1cc(CCC(=O)NCC2CCCO2)cc(OC)c1OC (stereo not shown)	19.5%
COc1ccc(CN2CCNC(=O)C2CC(=O)N(C)Cc2ccno2)c(F)c1 (stereo not shown)	3.58%
CCCC1(c2ccccc2)NC(=O)N(CC(=O)Nc2cc(C)on2)C1=O (stereo not shown)	23.6%
CN1CCc2c(sc3c2c(=O)n(-c2ccccc2)c2n[nH]c(=S)n32)C1	-2.7%
OCCC#Cc1ccc(CN2CCN(Cc3ccsc3)C(CCO)C2)cc1 (stereo not shown)	-4.59%
CCOC(=O)N1CCN(c2ccc(C(C)=O)cc2F)CC1C (stereo not shown)	-35.3%
CCCc1ccc(S(=O)(=O)N/N=C\c2ccc3c(c2)OCO3)cc1	-0.771%
O=C(CCN1C(=O)C2CCCCC2C1=O)Nc1nc2ccc(F)cc2s1 (stereo not shown)	-6.97%
CC(C)(C)c1cc(NC(=O)Nc2ccccc2OC(F)(F)F)no1	26.4%
CCOc1ccc(/C=N/NC2=NCCCCC2)cc1	-69.3%
COc1cc(OC)cc(C(=O)NC(C)CNc2ccc(Cl)cc2[N+](=O)[O-])c1 (stereo not shown)	-11.7%
O=c1[nH]c2cc3c(cc2cc1CN(Cc1nnnn1CC1CCCO1)C1CCCCC1)OCO3 (stereo not shown)	6.43%
N#Cc1cccc(Cn2cc(C(F)(F)F)ccc2=O)c1	-1.31%
COc1ccc(C(=O)NC2CC2)cc1OC1CCN(Cc2ccc(F)c(F)c2)CC1	-75.2%
CCOc1ccc([C@@H]2CC=C(C(=O)O)CN2S(=O)(=O)c2ccc(C)cc2)cc1	6.99%
CCn1nc(C(=O)OCC(=O)N2CCc3ccccc32)c2ccccc2c1=O	-7.86%
FC(F)(F)c1cnc(-c2cnc(-c3ccccn3)nc2)c(Cl)c1	11.6%
CC(C)(C)C1CCc2c(sc(NC(=O)c3ccco3)c2C(N)=O)C1 (stereo not shown)	19.8%
Cc1ccc(C(c2nnnn2C2CCCC2)N2CCc3ccccc32)cc1 (stereo not shown)	9.69%
Cc1cc(NC(=O)c2ccc(Cl)cc2Cl)n(CCC#N)n1	16.5%
CCOC(=O)c1nnn(-c2nonc2-n2cccc2)c1CN1CCC(C(=O)OCC)CC1	-10.3%
CCc1cccc(C)c1NC(=O)CCCN1C(=O)CN(C)C1=O	-1.59%

SMILES	hERG current change (%, negative = inhibition) at 10uM
CC(=O)Nc1ccc2nc(C3CCCCC3)[nH]c2c1	9.34%
COc1ccc(CCNC(=O)c2ccco2)cc1	9.1%
Cc1ccccc1OCc1nnc(SCC(=O)Nc2ccc(N3CCOCC3)c(Cl)c2)n1C	3.63%
CCOc1ccc(N2C(=O)CC(N3CCOCC3)C2=O)cc1 (stereo not shown)	4.73%
CCCCNC(=O)c1ccc(Cn2c(=S)[nH]c3c([nH]c4ccc(OC)cc43)c2=O)cc1	-3.63%
CCC(C)N(C(=O)Cn1nc(C)c([N+](=O)[O-])c1C)C1CCS(=O)(=O)C1 (stereo not shown)	-2.13%
CCCn1cc(S(=O)(=O)c2ccc(F)cc2)c(=O)c2cc(OCC)ccc21	-38.6%
Cc1c(Cl)cccc1NC(=O)CCN1CCCCC1	-9.25%
CCOc1cc(NC(=O)c2cccs2)c(OCC)cc1NC(=O)c1ccco1	20.4%
Cc1nnc(NC2=NCCCCC2)o1	7.75%
CN(C)S(=O)(=O)c1cccc(NC(=O)/C=C/c2ccc(S(=O)(=O)N3CCOCC3)cc2)c1	6.02%
O/N=C(\c1ccc2c(c1)OCCO2)C1CCCCC1	10.3%
COc1cc(C(=O)NNC(=O)COc2ccc(C)cc2)ccc1OCC(=O)N1CCOCC1	2.68%
COc1ccc2nc(N3CCCCC3)c(/C=C3\SC(=S)NC3=O)cc2c1	21.7%
COc1cccc(OC)c1C(=O)NC(=S)NCc1ccco1	18.2%
CCc1ccc(C(=O)CSc2nc3ccccc3c(=O)[nH]2)cc1	-5.04%
Cn1cccc1Cc1nnc(SCC(N)=O)n1CCc1ccccc1	-6.33%
CN(Cc1c(F)cccc1Cl)C(=O)c1cnc2ccccc2n1	-0.845%
CCc1ccc(NC2Nc3cc(C)nn3S2)cc1 (stereo not shown)	8.3%
COC(=O)Cc1c(C)nc2nc(NCc3cccc([N+](=O)[O-])c3)[nH]n2c1=O	2.49%
Cc1c(C(=O)N2CCC(C)CC2)oc2ccc3c(c12)C(O)CC1(CCCCC1)O3 (stereo not shown)	17%
Cc1c(N=Cc2cccnc2)c(=O)n(-c2ccccc2)n1C	2.93%
